This is an account of results in patent EP4592315A1 (Biotheus Inc., dated 2024).

The assay deals with T1, human 4-1BB (human, UniProt Q07011 24-255).
T1 construct: whole, on cells; also called h4-1BB; CD137
Nature of the assay: flow cytometry on CHOS-h4-1BB cells (overexpressing human 4-1BB), anti-human IgG-Fc PE. (In flow cytometry, cells or beads pass a laser one at a time.)

Sequence of human 4-1BB (Q07011 24-255): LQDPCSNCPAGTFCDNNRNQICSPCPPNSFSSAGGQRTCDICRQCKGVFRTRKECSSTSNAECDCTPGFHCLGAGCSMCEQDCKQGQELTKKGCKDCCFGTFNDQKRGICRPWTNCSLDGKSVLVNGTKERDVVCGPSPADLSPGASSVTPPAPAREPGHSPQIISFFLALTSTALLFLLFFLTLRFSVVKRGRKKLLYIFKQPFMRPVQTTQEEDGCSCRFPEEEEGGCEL

B1: HER2x4-1BB-3 (bispecific antibody, human IgG1, kappa)
heavy: EVQLVESGGGLVQPGGSLRLSCAASGFTFTDYTMDWVRQAPGKGLEWVADVNPNSGGSIYNQRFKGRFTLSVDRSKNTLYLQMNSLRAEDTAVYYCARNLGPSFYFDYWGQGTLVTVSS[left out - human IgG1 constant region]GGGAGGGGAGGGGAGGGGA[left out - about 120 residues]
light: DIQMTQSPSSLSASVGDRVTITCKASQDVSIGVAWYQQKPGKAPKLLIYSASYRYTGVPSRFSGSGSGTDFTLTISSLQPEDFATYYCQQYYIYPYTFGQGTKVEIKRTVAAPSVFIFPPSDEQLKSGTASVVCLLNNFYPREAKVQWKVDNALQSGNSQESVTEQDSKDSTYSLSSTLTLSKADYEKHKVYACEVTHQGLSSPVTKSFNRGEC
notes: also called HER2×4-1BB-3; HER2 × 4-1BB-3
What is called EC50 is the concentration needed to bring the measured effect to its halfway point. Read a low EC50 as greater potency. With B1, the concentration for a half-maximal effect (EC50) turned out to be 10.9 nM.
